# Test results from the supplement of paper PMC8728848.
# This is one part of the list.
# B1: Surfactant Protein D (Human); Neck + Carbohydrate Recognition Domain (NCRD) (Homo sapiens) (protein)
# chain: MLLFLLSALVLLTQPLGYLEAEMKTYSHRTMPSACTLVMCSSVESGLPGRDRDGREGPRGEKGDPGLPGAAGQAGMPGQAGPVGPKGDNGSVGEPGPKGDTGPSGPPGPPGVPGPAGREGALGKQGNIGPQGKPGPKGEAGPKGEVGAPGMQGSAGARGLAGPKGERGVPGERGVPGNTGAAGSAGAMGPQGSPGARGPPGLKGDKGIPGDKGAKGESGLPDVASLRQQVEALQGQVQHLQAAFSQYKKVELFPNGQSVGEKIFKTAQFVKPFTEAQLLCTQAGGQLASPRSAAENAALQQLVVAKNEAAFLSMTDSKTEGKFTYPTGESLVYSNWAPGEPNDDGGSADCVEIFTNGKWNDRACGAKRLVVCEF
# Assays:
# Assay in all cases: glycan array binding signal (z-score within array); higher = stronger binding
# Conditions in all cases: glycan notation: IUPAC condensed, linker removed; mutation: E347A
# [1] = target: Fuc(a1-2)[GalNAc(a1-3)]Gal(b1-4)[Fuc(a1-3)]GlcNAc
# Summary of the method: (§1)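 Glycan array data were curated from 3228 arrays in the Consortium for Functional Glycomics database and kept only where the protein sequence was available. Glycan names were converted to IUPAC-condensed notation, and columns mapping to the same glycan were averaged. The binding signal is a within-array Z-score, averaged across arrays of the same protein sequence at different concentrations or buffers and across linkers. Negative Z-scores can be read as non-binding.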
# [2] = target: Fuc(a1-2)[GalNAc(a1-4)]Gal(b1-4)GlcNAc
# Summary of the method: as §1
# [3] = target: Fuc(a1-2)[GalNAc(b1-3)]Gal
# Summary of the method: as §1
# Fuc(a1-3)GlcNAc = target: Fuc(a1-3)GlcNAc
# Summary of the method: as §1
# [4] = target: Fuc(a1-3)[Gal(b1-4)]Glc6S
# Summary of the method: as §1
# [5] = target: Fuc(a1-3)[Gal(b1-4)]GlcNAc
# Summary of the method: as §1
# [6] = target: Fuc(a1-3)[Gal(b1-4)]GlcNAc(b1-2)Man(a1-3)[Fuc(a1-3)[Gal(b1-4)]GlcNAc(b1-2)Man(a1-6)]Man(b1-4)GlcNAc(b1-4)GlcNAc
# Summary of the method: as §1
# [7] = target: Fuc(a1-3)[Gal(b1-4)]GlcNAc(b1-2)Man(a1-6)[Gal(b1-4)GlcNAc(b1-2)Man(a1-3)]Man(b1-4)GlcNAc(b1-4)GlcNAc
# Summary of the method: as §1
# [8] = target: Fuc(a1-3)[Gal(b1-4)]GlcNAc(b1-3)Gal(b1-3)[Fuc(a1-4)]GlcNAc
# Summary of the method: as §1
# [9] = target: Fuc(a1-3)[Gal(b1-4)]GlcNAc(b1-4)Gal(b1-4)[Fuc(a1-3)]GlcNAc
# Summary of the method: as §1
# [10] = target: Fuc(a1-3)[Gal(b1-4)]GlcNAc(b1-4)Gal(b1-4)[Fuc(a1-3)]GlcNAc(b1-4)Gal(b1-4)[Fuc(a1-3)]GlcNAc
# Summary of the method: as §1
# [11] = target: Fuc(a1-3)[Gal(b1-4)]GlcNAc6S
# Summary of the method: as §1
# [12] = target: Fuc(a1-3)[Gal3S(b1-4)]Glc6S
# Summary of the method: as §1
# [13] = target: Fuc(a1-3)[Gal3S(b1-4)]GlcNAc
# Summary of the method: as §1
# [14] = target: Fuc(a1-3)[Gal3S(b1-4)]GlcNAc6S
# Summary of the method: as §1
# [15] = target: Fuc(a1-3)[GalNAc(b1-4)]GlcNAc
# Summary of the method: as §1
# Fuc(a1-4)GlcNAc = target: Fuc(a1-4)GlcNAc
# Summary of the method: as §1
# Fuc(b1-3)GlcNAc = target: Fuc(b1-3)GlcNAc
# Summary of the method: as §1
# Gal(a1-2)Gal = target: Gal(a1-2)Gal
# Summary of the method: as §1
# Gal(a1-3)Gal = target: Gal(a1-3)Gal
# Summary of the method: as §1
# Gal(a1-3)Gal(b1-3)GlcNAc = target: Gal(a1-3)Gal(b1-3)GlcNAc
# Summary of the method: as §1
# Gal(a1-3)Gal(b1-4)Glc = target: Gal(a1-3)Gal(b1-4)Glc
# Summary of the method: as §1
# Gal(a1-3)Gal(b1-4)GlcNAc = target: Gal(a1-3)Gal(b1-4)GlcNAc
# Summary of the method: as §1
# [16] = target: Gal(a1-3)Gal(b1-4)[Fuc(a1-3)]GlcNAc
# Summary of the method: as §1
# Gal(a1-3)GalNAc = target: Gal(a1-3)GalNAc
# Summary of the method: as §1
# [17] = target: Gal(a1-3)[Gal(a1-4)]Gal(b1-4)GlcNAc
# Summary of the method: as §1
# Gal(a1-4)Gal(b1-4)Glc = target: Gal(a1-4)Gal(b1-4)Glc
# Summary of the method: as §1
# Gal(a1-4)Gal(b1-4)GlcNAc = target: Gal(a1-4)Gal(b1-4)GlcNAc
# Summary of the method: as §1
# Gal(a1-4)GlcNAc = target: Gal(a1-4)GlcNAc
# Summary of the method: as §1
# Gal(a1-6)Glc = target: Gal(a1-6)Glc
# Summary of the method: as §1
# Gal(b1-2)Gal = target: Gal(b1-2)Gal
# Summary of the method: as §1
# Gal(b1-3)Gal = target: Gal(b1-3)Gal
# Summary of the method: as §1
# Gal(b1-3)Gal(b1-4)GlcNAc = target: Gal(b1-3)Gal(b1-4)GlcNAc
# Summary of the method: as §1
# Gal(b1-3)GalNAc = target: Gal(b1-3)GalNAc
# Summary of the method: as §1
# [18] = target: Gal(b1-3)GalNAc(b1-3)Gal(a1-4)Gal(b1-4)Glc
# Summary of the method: as §1
# [19] = target: Gal(b1-3)GalNAc(b1-4)Gal(b1-4)Glc
# Summary of the method: as §1
# [20] = target: Gal(b1-3)GalNAc(b1-4)[Neu5Ac(a2-3)]Gal(b1-4)Glc
# Summary of the method: as §1
# Gal(b1-3)GlcNAc = target: Gal(b1-3)GlcNAc
# Summary of the method: as §1
# [21] = target: Gal(b1-3)GlcNAc(b1-2)Man(a1-3)[Gal(b1-3)GlcNAc(b1-2)Man(a1-6)]Man(b1-4)GlcNAc(b1-4)GlcNAc
# Summary of the method: as §1
# [22] = target: Gal(b1-3)GlcNAc(b1-3)Gal(b1-3)GlcNAc
# Summary of the method: as §1
# [23] = target: Gal(b1-3)GlcNAc(b1-3)Gal(b1-4)Glc
# Summary of the method: as §1
# [24] = target: Gal(b1-3)GlcNAc(b1-3)Gal(b1-4)GlcNAc
# Summary of the method: as §1
# [25] = target: Gal(b1-3)[Fuc(a1-4)]GlcNAc
# Summary of the method: as §1
# [26] = target: Gal(b1-3)[Fuc(a1-4)]GlcNAc(b1-3)Gal(b1-3)[Fuc(a1-4)]GlcNAc
# Summary of the method: as §1
# [27] = target: Gal(b1-3)[Fuc(a1-4)]GlcNAc(b1-3)Gal(b1-4)GlcNAc
# Summary of the method: as §1
binder,measurement,setting,value
B1,glycan array binding signal (z-score),[1],-0.282
same,glycan array binding signal (z-score),[2],-0.222
same,glycan array binding signal (z-score),[3],-0.115
same,glycan array binding signal (z-score),Fuc(a1-3)GlcNAc,-0.445
same,glycan array binding signal (z-score),[4],0.176
same,glycan array binding signal (z-score),[5],-0.091
same,glycan array binding signal (z-score),[6],-0.15
same,glycan array binding signal (z-score),[7],-0.383
same,glycan array binding signal (z-score),[8],-0.11
same,glycan array binding signal (z-score),[9],-0.116
same,glycan array binding signal (z-score),[10],-0.239
same,glycan array binding signal (z-score),[11],0.431
same,glycan array binding signal (z-score),[12],0.074
same,glycan array binding signal (z-score),[13],0.099
same,glycan array binding signal (z-score),[14],0.434
same,glycan array binding signal (z-score),[15],-0.435
same,glycan array binding signal (z-score),Fuc(a1-4)GlcNAc,-0.116
same,glycan array binding signal (z-score),Fuc(b1-3)GlcNAc,0.037
same,glycan array binding signal (z-score),Gal(a1-2)Gal,-0.336
same,glycan array binding signal (z-score),Gal(a1-3)Gal,-0.068
same,glycan array binding signal (z-score),Gal(a1-3)Gal(b1-3)GlcNAc,-0.281
same,glycan array binding signal (z-score),Gal(a1-3)Gal(b1-4)Glc,-0.198
same,glycan array binding signal (z-score),Gal(a1-3)Gal(b1-4)GlcNAc,-0.244
same,glycan array binding signal (z-score),[16],-0.47
same,glycan array binding signal (z-score),Gal(a1-3)GalNAc,-0.384
same,glycan array binding signal (z-score),[17],-0.429
same,glycan array binding signal (z-score),Gal(a1-4)Gal(b1-4)Glc,-0.265
same,glycan array binding signal (z-score),Gal(a1-4)Gal(b1-4)GlcNAc,-0.118
same,glycan array binding signal (z-score),Gal(a1-4)GlcNAc,-0.46
same,glycan array binding signal (z-score),Gal(a1-6)Glc,-0.408
same,glycan array binding signal (z-score),Gal(b1-2)Gal,-0.48
same,glycan array binding signal (z-score),Gal(b1-3)Gal,-0.232
same,glycan array binding signal (z-score),Gal(b1-3)Gal(b1-4)GlcNAc,-0.237
same,glycan array binding signal (z-score),Gal(b1-3)GalNAc,-0.293
same,glycan array binding signal (z-score),[18],-0.446
same,glycan array binding signal (z-score),[19],-0.19
same,glycan array binding signal (z-score),[20],0.087
same,glycan array binding signal (z-score),Gal(b1-3)GlcNAc,-0.046
same,glycan array binding signal (z-score),[21],-0.351
same,glycan array binding signal (z-score),[22],-0.162
same,glycan array binding signal (z-score),[23],-0.274
same,glycan array binding signal (z-score),[24],-0.211
same,glycan array binding signal (z-score),[25],-0.164
same,glycan array binding signal (z-score),[26],-0.057
same,glycan array binding signal (z-score),[27],-0.057
